The values below come from publication PMC4336329 (PLoS ONE, 2015).

Each structure is given as a SMILES string. In all, about 310,000 compounds went through this assay and about 14,000 (4.5%) showed an effect of 50% or more. The effect is printed as a negative number. The list shows a part of the results.
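Also: peak tail current of the secondary pulse compared with the same well before compound.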

Sequence of human ether-à-go-go-related gene (hERG) potassium channel (Q12809 whole entry, looked up): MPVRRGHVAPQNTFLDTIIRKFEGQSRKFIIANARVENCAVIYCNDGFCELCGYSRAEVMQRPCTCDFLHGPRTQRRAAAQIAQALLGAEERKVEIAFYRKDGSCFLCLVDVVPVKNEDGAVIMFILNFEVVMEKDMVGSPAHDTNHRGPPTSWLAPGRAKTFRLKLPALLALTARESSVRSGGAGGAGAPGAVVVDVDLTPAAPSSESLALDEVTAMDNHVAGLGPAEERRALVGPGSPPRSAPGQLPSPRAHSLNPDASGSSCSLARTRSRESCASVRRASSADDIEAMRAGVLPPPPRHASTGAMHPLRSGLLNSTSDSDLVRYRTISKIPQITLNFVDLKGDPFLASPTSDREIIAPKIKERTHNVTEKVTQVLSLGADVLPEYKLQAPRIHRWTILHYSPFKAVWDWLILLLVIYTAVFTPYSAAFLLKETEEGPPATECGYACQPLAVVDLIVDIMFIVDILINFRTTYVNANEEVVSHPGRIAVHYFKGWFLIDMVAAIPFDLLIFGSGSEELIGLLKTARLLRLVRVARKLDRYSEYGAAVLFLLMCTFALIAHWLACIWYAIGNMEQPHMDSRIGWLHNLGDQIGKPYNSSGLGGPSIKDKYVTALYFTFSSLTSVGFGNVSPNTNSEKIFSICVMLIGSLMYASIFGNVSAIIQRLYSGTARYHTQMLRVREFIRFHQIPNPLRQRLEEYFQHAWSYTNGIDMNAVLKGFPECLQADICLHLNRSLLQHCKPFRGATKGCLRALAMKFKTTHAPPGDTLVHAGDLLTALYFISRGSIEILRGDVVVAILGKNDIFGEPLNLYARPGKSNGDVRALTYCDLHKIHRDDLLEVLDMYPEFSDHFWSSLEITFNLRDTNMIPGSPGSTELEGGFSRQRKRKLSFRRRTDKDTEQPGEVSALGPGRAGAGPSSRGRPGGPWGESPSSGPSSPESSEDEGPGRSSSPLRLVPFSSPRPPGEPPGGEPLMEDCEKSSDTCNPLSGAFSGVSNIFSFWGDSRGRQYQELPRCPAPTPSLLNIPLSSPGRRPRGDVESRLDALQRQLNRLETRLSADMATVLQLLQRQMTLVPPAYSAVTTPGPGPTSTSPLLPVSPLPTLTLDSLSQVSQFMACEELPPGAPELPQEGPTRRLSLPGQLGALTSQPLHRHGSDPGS

This assay addresses human ether-à-go-go-related gene (hERG) potassium channel (human, UniProt Q12809). The assay can be described thus: primary screen, population patch clamp on CHO cells stably expressing hERG.
Turning to `O=C(CCNC(=O)c1ccccc1Cl)Nc1cccc(S(=O)(=O)N2CCCC2)c1`, the “hERG current change (%, negative = inhibition) at 10uM” value is recorded as -1.76%.

Consider `COc1cccc(CNC(=O)C2CCCN(S(=O)(=O)c3c(C)n[nH]c3C)C2)c1` (stereo not shown), for which the “hERG current change (%, negative = inhibition) at 10uM” value is given as -4.5%.

On to `O=C(O)C(=O)O.c1ccc(-c2cnc(SCCN3CCOCC3)n2CC2CCCO2)cc1` (stereo not shown), for which the “hERG current change (%, negative = inhibition) at 10uM” value was -0.604%.

With `COc1ccc(N2CCN(CCc3ccncc3)CC2)cc1`, the “hERG current change (%, negative = inhibition) at 10uM” value is on record as -38%.

As for `O=C(COC(=O)CCc1nc2ccccc2c(=O)[nH]1)NC(c1ccccc1)c1ccccc1`, the “hERG current change (%, negative = inhibition) at 10uM” value came to 5.31%.

Take `COc1cccc(Nc2nc3ccc(C(=O)c4ccccc4)cc3n3cnnc23)c1`: the “hERG current change (%, negative = inhibition) at 10uM” value was -1.42%.

With `COc1ccccc1CNC(=O)CSCc1cnn(-c2ccccc2)c1-n1cccc1`, the “hERG current change (%, negative = inhibition) at 10uM” value is listed as -17%.

For `O=C(CCc1nc(-c2ccccc2)c(-c2ccccc2)o1)OCc1ccc(Cl)cc1`, the “hERG current change (%, negative = inhibition) at 10uM” value is 17.4%.

Consider `CC(C)(C)C(=O)c1cn(Cc2ccccc2)c2ccccc12`, for which the “hERG current change (%, negative = inhibition) at 10uM” value is -4.12%.

For `CCN(CC)S(=O)(=O)c1ccc(S(=O)(=O)N2CCN(CCC#N)CC2)cc1`, the “hERG current change (%, negative = inhibition) at 10uM” value is 8.45%.

Consider `CCOc1ccc(NC(=O)CCc2c(C)nn(-c3ccc(N4CCCCC4)nn3)c2C)cc1`, for which the “hERG current change (%, negative = inhibition) at 10uM” value is given as 13.4%.

Consider `CCOc1ccc(N2C(=O)C3ON(C)C(c4ccc([N+](=O)[O-])cc4)C3C2=O)cc1` (stereo not shown), for which the “hERG current change (%, negative = inhibition) at 10uM” value is given as 20.7%.

On to `Nc1cc(=O)[nH]c(SCC(=O)Nc2ccc3c(c2)CCC3)n1`, for which the “hERG current change (%, negative = inhibition) at 10uM” value worked out at 21%.

As for `COc1ccc([N+](=O)[O-])cc1NC(=O)CCN1CCN(c2ccccc2OC)CC1`, the “hERG current change (%, negative = inhibition) at 10uM” value was -5.64%.

Take `O=C(c1cnccn1)N1CCN(C/C=C/c2ccccc2)CC1`: the “hERG current change (%, negative = inhibition) at 10uM” value is -16.6%.

In the case of `CCOC(=O)c1sc2nc(C)nc(NCc3ccc(F)cc3)c2c1C`, the “hERG current change (%, negative = inhibition) at 10uM” value is 17.2%.

As to `Cn1c(=O)oc2cc(S(=O)(=O)NC3CCCc4ccccc43)ccc21` (stereo not shown), the “hERG current change (%, negative = inhibition) at 10uM” value is on record as -9.82%.

On to `COc1ccccc1NC(=O)NNC(=O)CN1C(=O)COc2ccccc21`, for which the “hERG current change (%, negative = inhibition) at 10uM” value turned out to be 22.7%.

As to `CCOc1ccc(C(=O)NCC(=O)OCC(=O)N2CCCC2)cc1`, the “hERG current change (%, negative = inhibition) at 10uM” value stood at 9.6%.

As to `Cc1cccc(CN2CCc3c([nH]c4ccccc34)C2CC(C)C)n1` (stereo not shown), the “hERG current change (%, negative = inhibition) at 10uM” value is reported as -3.98%.

Consider `CC1CCN(CC(=O)Nc2cccc([N+](=O)[O-])c2)CC1`, for which the “hERG current change (%, negative = inhibition) at 10uM” value stood at 3.53%.

Consider `Cc1ccc(Cl)cc1NC(=S)NCc1cccn1C`, for which the “hERG current change (%, negative = inhibition) at 10uM” value came to 4.23%.

On to `N#Cc1cc2c(nc1SCc1ccc(Cl)nc1)CCCCC2`, for which the “hERG current change (%, negative = inhibition) at 10uM” value is 0.646%.

Consider `NC(=O)CCS(=O)(=O)CCN1CCN(S(=O)(=O)c2ccc3c(c2)CCC3)CC1`, for which the “hERG current change (%, negative = inhibition) at 10uM” value is 11.2%.

Turning to `N/C(=N\OC(=O)Nc1ccccc1)c1ccno1`, the “hERG current change (%, negative = inhibition) at 10uM” value was found to be 5.64%.

For `C=C(C)CNC(=S)N/N=C(\C)c1ccc(Cl)s1`, the “hERG current change (%, negative = inhibition) at 10uM” value was determined as 9.74%.

Regarding `N/C(=N/OC(=O)c1ccc(Cl)cc1)c1ncc([N+](=O)[O-])s1`, the “hERG current change (%, negative = inhibition) at 10uM” value is listed as 15.7%.

Turning to `CC1Cc2ccccc2N1C(=O)CSc1nnc(NC(=O)Cc2cccs2)s1` (stereo not shown), the “hERG current change (%, negative = inhibition) at 10uM” value is -4.25%.

In the case of `CCc1ccc(CN2CCCC(CCC(=O)N3CCN(c4ccccn4)CC3)C2)o1` (stereo not shown), the “hERG current change (%, negative = inhibition) at 10uM” value was -58.7%.

As to `Nc1cc(Cl)ccc1C(=O)OCC(=O)NC1CCCCCCC1`, the “hERG current change (%, negative = inhibition) at 10uM” value came to 2.69%.

Take `CC1CC1C(=O)OCC(=O)NC(=O)NCc1ccco1` (stereo not shown): the “hERG current change (%, negative = inhibition) at 10uM” value is recorded as -0.222%.

As for `Cc1csc(=O)n1CC(=O)OCC(=O)Nc1ccc(Cl)cc1F`, the “hERG current change (%, negative = inhibition) at 10uM” value was determined as 4.07%.

Take `CCc1cc(=O)oc2cc(OCC(=O)NCCCn3ccnc3)ccc12`: the “hERG current change (%, negative = inhibition) at 10uM” value is listed as -2.06%.

For `O=C(NCc1cccnc1)C1CCN(C(=O)c2ccc(Cl)cc2Cl)CC1`, the “hERG current change (%, negative = inhibition) at 10uM” value is listed as -10.8%.

Take `Cc1ccccc1C(=O)Nc1cccc(NC(=O)c2cccnc2)c1`: the “hERG current change (%, negative = inhibition) at 10uM” value is listed as -9.39%.

As to `O=C1OCC2=C1C(c1ccc(F)cc1)CC(=O)N2c1ccccc1` (stereo not shown), the “hERG current change (%, negative = inhibition) at 10uM” value is -10.3%.

As to `COc1cc2cnc(-c3ccsc3)c(-c3ccc(F)cc3)c2cc1OC`, the “hERG current change (%, negative = inhibition) at 10uM” value is 17.3%.

`NN=C(c1cccc([N+](=O)[O-])c1)c1cccc([N+](=O)[O-])c1`: the “hERG current change (%, negative = inhibition) at 10uM” value is recorded as 0.696%.

For the molecule `COCCNC(=O)NC(=O)COC(=O)Cc1ccc2c(c1)OCCO2`, the “hERG current change (%, negative = inhibition) at 10uM” value was -12.1%.

As for `CCOc1ccccc1Nc1cc(C)nc2nc(C)nn12`, the “hERG current change (%, negative = inhibition) at 10uM” value was -11.6%.

Take `Cc1ccccc1OCc1nc2ccccc2c(=O)n1/N=C/c1ccco1`: the “hERG current change (%, negative = inhibition) at 10uM” value was 6.66%.

`COc1ccc(O[C@H]2C=C[C@@H](c3ccccc3)O[C@@H]2CO/N=C/C[C@@H]2C=C[C@H](OC(C)=O)[C@@H](COC(C)=O)O2)cc1`: the “hERG current change (%, negative = inhibition) at 10uM” value was -9.17%.

As for `COc1ccc(-c2cc(C(=O)NCCCN3CCOCC3)on2)cc1OC`, the “hERG current change (%, negative = inhibition) at 10uM” value turned out to be 6.56%.
